In the supplement of paper PMC4604168 (melanoma cell lines):
The other results are listed elsewhere or left out. Single values are uncertain, as repeats are few or missing.

Each molecule was assayed on LOXIMVI (assay: cell count relative to DMSO control; melanoma cells; higher = more viable cells). Conditions: library dose: standard library concentration; 72 h.
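Further: cells treated in 1,536-well plates, then fixed and DAPI-stained, with nuclei counted from automated high-throughput microscope images.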

SMILES | cell count [%]
COc1cc2c(Oc3ccc4[nH]c(C)cc4c3F)ncnc2cc1OCCCN1CCCC1 [cediranib] + N#Cc1c(O)c2c(-c3ccc(-c4ccccc4O)cc3)csc2[nH]c1=O [A769662] (first compound 2 µM, partner dose 10 µM) | 88.9
CC(C)(C)c1cnc(CSc2cnc(NC(=O)C3CCNCC3)s2)o1 + CN(C)S(=O)(=O)c1ccc2c(c1)/C(=C/c1cc3c([nH]1)CCCC3)C(=O)N2 [SU6656] (first compound 0.05 µM, partner dose 2 µM) | 74.6
COc1cc2c(Oc3ccc4[nH]c(C)cc4c3F)ncnc2cc1OCCCN1CCCC1 [cediranib] + COc1ccc(COc2ccc(Cc3cnc(N)nc3N)cc2OC)cc1 [GW2580] (first compound 2 µM, partner dose 5 µM) | 247
CCCCCCCCc1ccc(CCC(N)(CO)CO)cc1 [fingolimod] + OCCn1cc(-c2cnc3nnn(Cc4ccc5ncccc5c4)c3n2)cn1 [PF04217903] (first compound 10 µM, partner dose 5 µM) | 25.3
NC(=O)c1ccc(N(C(N)=O)c2c(F)cccc2F)nc1-c1ccc(F)cc1F + Clc1ccc(Nc2nnc(Cc3ccncc3)c3ccccc23)cc1 [vatalanib] (first compound 2 µM, partner dose 10 µM) | 75
CCc1ccc(CCOc2ccc(CC3SC(=O)NC3=O)cc2)nc1 (centres undefined) [pioglitazone] + CC(C)CCN1c2nc(Nc3cc(F)c(O)c(F)c3)ncc2N(C)C(=O)C1C [BID1870] (first compound 10 µM, partner dose 1 µM) | 98.3
Cc1ccc(NC(=O)c2cccc(N(C)C)c2)cc1NC(=O)c1ccc(O)cc1 + CN(C)S(=O)(=O)c1ccc2c(c1)/C(=C/c1cc3c([nH]1)CCCC3)C(=O)N2 [SU6656] (first compound 10 µM, partner dose 2 µM) | 109
NC(=O)c1ccc(N(C(N)=O)c2c(F)cccc2F)nc1-c1ccc(F)cc1F + Cc1cc(N2CCOCC2)cc2[nH]c(-c3c(NC[C@@H](O)c4cccc(Cl)c4)cc[nH]c3=O)nc12 [BMS536924] (first compound 2 µM, partner dose 1 µM) | 96.3
Cc1ccc(NC(=O)c2cccc(N(C)C)c2)cc1NC(=O)c1ccc(O)cc1 + CCCCCCCCCCCC1=C(O)C(=O)C=C(O)C1=O [Embelin] (first compound 10 µM, partner dose 6 µM) | 110
CN(NC(=O)CC(=O)NN(C)C(=S)c1ccccc1)C(=S)c1ccccc1 + Cn1cc(/C=C2\C(=O)Nc3cccnc32)c2ccccc21 [GW441756] (first compound 0.03 µM, partner dose 2 µM) | 112
CCCCCCCCc1ccc(CCC(N)(CO)CO)cc1 [fingolimod] + O=C(O)[C@@H]1[O][Sb](=[O])([O][Sb]2(=[O])[O][C@H]([C@H](O)CO)[C@H](O)[C@H](C(=O)O)[O]2)[O][C@H]([C@H](O)CO)[C@@H]1O [stibogluconate] (first compound 10 µM, partner dose 10 µM) | 66.4
Cc1ccc(NC(=O)c2cccc(N(C)C)c2)cc1NC(=O)c1ccc(O)cc1 + COc1cc(N2CCC(N3CCN(C)CC3)CC2)ccc1Nc1ncc(Cl)c(Nc2ccccc2S(=O)(=O)C(C)C)n1 [NVP-TAE684] (first compound 10 µM, partner dose 0.4 µM) | 180
COc1cc2c(Oc3ccc4[nH]c(C)cc4c3F)ncnc2cc1OCCCN1CCCC1 [cediranib] + COc1cc(N2CCC(N3CCN(C)CC3)CC2)ccc1Nc1ncc(Cl)c(Nc2ccccc2S(=O)(=O)C(C)C)n1 [NVP-TAE684] (first compound 2 µM, partner dose 0.4 µM) | 40
COc1cc2c(Oc3ccc4[nH]c(C)cc4c3F)ncnc2cc1OCCCN1CCCC1 [cediranib] + Cn1cc(/C=C2\C(=O)Nc3cccnc32)c2ccccc21 [GW441756] (first compound 2 µM, partner dose 2 µM) | 74.1
COc1cc2c(Oc3ccc4[nH]c(C)cc4c3F)ncnc2cc1OCCCN1CCCC1 [cediranib] + Oc1cc(-c2nc(-c3ccccc3)[nH]c2-c2ccncc2)ccc1Cl [L779450] (first compound 2 µM, partner dose 1 µM) | 49
NC(=O)c1ccc(N(C(N)=O)c2c(F)cccc2F)nc1-c1ccc(F)cc1F + Cc1nc(Nc2ncc(C(=O)Nc3c(C)cccc3Cl)s2)cc(N2CCN(CCO)CC2)n1 [dasatanib] (first compound 2 µM, partner dose 0.02 µM) | 18.3
CC(C)(C)c1cnc(CSc2cnc(NC(=O)C3CCNCC3)s2)o1 + c1cc(-c2cnn3cc(-c4ccc(OCCN5CCCCC5)cc4)cnc23)ccn1 [Dorsomorphin] (first compound 0.05 µM, partner dose 2 µM) | 246

SMILES | cell count [%]
CC(C)(C)c1cnc(CSc2cnc(NC(=O)C3CCNCC3)s2)o1 + C[C@@H]1CCN(C(=O)CC#N)C[C@@H]1N(C)c1ncnc2[nH]ccc12 [CP690550] (first compound 0.05 µM, partner dose 5 µM) | 58.2
CC(C)(C)c1cnc(CSc2cnc(NC(=O)C3CCNCC3)s2)o1 + Oc1nc(-c2ccc(C(F)(F)F)cc2)nc2c1CSCC2 [XAV939] (first compound 0.05 µM, partner dose 10 µM) | 90
NC(=O)c1ccc(N(C(N)=O)c2c(F)cccc2F)nc1-c1ccc(F)cc1F + C=C(c1ccc(C(=O)O)cc1)c1cc2c(cc1C)C(C)(C)CCC2(C)C [Bexarotene] (first compound 2 µM, partner dose 10 µM) | 89
CCc1ccc(CCOc2ccc(CC3SC(=O)NC3=O)cc2)nc1 (centres undefined) [pioglitazone] + N#Cc1c(O)c2c(-c3ccc(-c4ccccc4O)cc3)csc2[nH]c1=O [A769662] (first compound 10 µM, partner dose 10 µM) | 109
CC(C)(C)c1cnc(CSc2cnc(NC(=O)C3CCNCC3)s2)o1 + Cc1cc([N+](=O)[O-])ccc1NS(=O)(=O)c1cc(Cl)ccc1Cl [FH535] (first compound 0.05 µM, partner dose 5 µM) | 68.9
NC(=O)c1ccc(N(C(N)=O)c2c(F)cccc2F)nc1-c1ccc(F)cc1F + CN(c1ncccc1CNc1nc(Nc2ccc3c(c2)CC(=O)N3)ncc1C(F)(F)F)S(C)(=O)=O [PF562271] (first compound 2 µM, partner dose 0.4 µM) | 72.2
Cc1ccc(NC(=O)c2cccc(N(C)C)c2)cc1NC(=O)c1ccc(O)cc1 + Cc1cc(N2CCOCC2)cc2[nH]c(-c3c(NC[C@@H](O)c4cccc(Cl)c4)cc[nH]c3=O)nc12 [BMS536924] (first compound 10 µM, partner dose 1 µM) | 98.6
Cc1ccc(NC(=O)c2cccc(N(C)C)c2)cc1NC(=O)c1ccc(O)cc1 + Cn1cc(/C=C2\C(=O)Nc3cccnc32)c2ccccc21 [GW441756] (first compound 10 µM, partner dose 2 µM) | 81.5
CC(C)(C)c1cnc(CSc2cnc(NC(=O)C3CCNCC3)s2)o1 + OCCn1cc(-c2cnc3nnn(Cc4ccc5ncccc5c4)c3n2)cn1 [PF04217903] (first compound 0.05 µM, partner dose 5 µM) | 84.9
NC(=O)c1ccc(N(C(N)=O)c2c(F)cccc2F)nc1-c1ccc(F)cc1F + CCCCCCCCc1ccc(CCC(N)(CO)CO)cc1 [fingolimod] (first compound 2 µM, partner dose 10 µM) | 12.3
NC(=O)c1ccc(N(C(N)=O)c2c(F)cccc2F)nc1-c1ccc(F)cc1F + C[C@@H](Oc1cc(-c2cnn(C3CCNCC3)c2)cnc1N)c1c(Cl)ccc(F)c1Cl [Crizotinib] (first compound 2 µM, partner dose 1 µM) | 127
CCCCCCCCc1ccc(CCC(N)(CO)CO)cc1 [fingolimod] + C=C(c1ccc(C(=O)O)cc1)c1cc2c(cc1C)C(C)(C)CCC2(C)C [Bexarotene] (first compound 10 µM, partner dose 10 µM) | 13.7
NC(=O)c1ccc(N(C(N)=O)c2c(F)cccc2F)nc1-c1ccc(F)cc1F + O=C(O)c1ccc(-c2c[nH]c3ncc(-c4ccccc4)cc23)cc1C1CCCC1 [GSK650394] (first compound 2 µM, partner dose 0.8 µM) | 96.3
CCCCCCCCc1ccc(CCC(N)(CO)CO)cc1 [fingolimod] + CS(=O)(=O)CCNCc1ccc(-c2ccc3ncnc(Nc4ccc(OCc5cccc(F)c5)c(Cl)c4)c3c2)o1 [lapatinib] (first compound 10 µM, partner dose 4 µM) | 4.39
CC(C)(C)c1cnc(CSc2cnc(NC(=O)C3CCNCC3)s2)o1 + CN(NC(=O)CC(=O)NN(C)C(=S)c1ccccc1)C(=S)c1ccccc1 [STA4783] (first compound 0.05 µM, partner dose 0.03 µM) | 61.6
CCCCCCCCc1ccc(CCC(N)(CO)CO)cc1 [fingolimod] + COc1ccc(Cl)c(Nc2nc3ccccc3nc2NS(=O)(=O)c2cccc(NC(=O)C(C)(C)N)c2)c1 [XL147] (first compound 10 µM, partner dose 4 µM) | 18.7
CCCCCCCCc1ccc(CCC(N)(CO)CO)cc1 [fingolimod] + C[C@@H]1CCN(C(=O)CC#N)C[C@@H]1N(C)c1ncnc2[nH]ccc12 [CP690550] (first compound 10 µM, partner dose 5 µM) | 5.86
